Data taken from paper PMC12136788.
Some of the results follow.

T1: UNK ZnF1-3 (human, UniProt Q9C0B0 31-174)
T1 sequence: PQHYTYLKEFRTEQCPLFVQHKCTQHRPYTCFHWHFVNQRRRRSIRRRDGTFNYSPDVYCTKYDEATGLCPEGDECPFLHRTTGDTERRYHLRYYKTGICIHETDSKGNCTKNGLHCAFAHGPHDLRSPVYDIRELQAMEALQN

B1: chr2:183853844:183853845:-_ENSG00000061676_ENST00000360982|hu_hu|FALSE|FALSE (ssRNA)
RNA: GGGAGUUCUACAGUCCGACGAUCGUGAAUGUGGAAAACUUCAUCCCGAAAGAGAGAGAGGCAAGAGCUACUUUGAAGAGCUAGUUUCCAAAGGUUCAGUGCUGUAGCGUCAGUAUUUAGGAUCCCAUGGCACAAAAUAAAGCCCAACAGAGGAUUGAGCAUCA
B2: chr2:131104119:131104120:+_ENSG00000136718_ENST00000452955|hu_mus|FALSE|FALSE (ssRNA)
RNA: GGGAGUUCUACAGUCCGACGAUCGAUGACAGAGGGGUUAUUUAGAUCCCUCCAGUCUCCACUUAGGAUUAGUGAAUCUGUCUGUGACAAGUCUCUGAUCCAGGAUUCCAAGUCUGCAUUCUGACUGGCAAGUAGCUCAGCUCACAACAGAGGAUUGAGCAUCA
B3: chr4:62047152:62047153:+_ENSMUSG00000066150_ENSMUST00000084526|mus_hu|FALSE|FALSE (ssRNA)
RNA: GGGAGUUCUACAGUCCGACGAUCUCCAGCCAUUUCUCCAGCUGUAUUGAUCACCAAACCGGAAAACAGUAGUUCCACAUUCUUAAAGCCAAAGUAGAAGGUCAUAGGCAUCAUCAUCAUGCUGCUGUCUCCUCCACCAUGGGACAACAGAGGAUUGAGCAUCA
B4: chr1:156905105:156905106:-_ENSG00000132694_ENST00000368194|hu_mus|FALSE|FALSE (ssRNA)
RNA: GGGAGUUCUACAGUCCGACGAUCUCCUGACACUGAGAAGGCCUAGGCUUCAGAGGUGGGCAGGCCCUGGAGCUUGACAGCACUGGAAUCUGGGAGACCUCCCUGCCAGUGGGACAUAAACAAUCAUGGCCCUGUGCGGGGCUGCAACAGAGGAUUGAGCAUCA
B5: chr1:244855233:244855234:+_ENSG00000121644_ENST00000302550|hu_mus|hu_hu_hu_mus_True|28_38 (ssRNA)
RNA: GGGAGUUCUACAGUCCGACGAUCCAUCAGAUGGUAGGCGUUGCCCUUAUACUCUUUCCCCAGUUCUUCUACAAUUUUCUCUAUAUCAUCUUCUAGAAAGUCCGUGCUCCCUAAAACAACAGCUUCUUUAAAUUUAAAUGUUUCCAACAGAGGAUUGAGCAUCA
B6: 26019943_26020063_1296_ncRNA_ENSMUSG00000025730_ENSMUST00000166619|mouse|control|control (ssRNA)
RNA: GGGAGUUCUACAGUCCGACGAUCAGGAGGGAUUAGUGGGGUUUCCCAGGUGCAUCAACGGCUCUUCUCCUAGGUCUUAGGAGCUGAAACCUUGCCUAUGCCCAGCAUACUGAUCACCUUUGUCAGAUAUGGAAGCCGGAGCCACAACAGAGGAUUGAGCAUCA

target: T1, UNK ZnF1-3; assay: nsRBNS (natural sequence RNA bind-n-seq); RBNS binding buffer (assumed for nsRBNS): 25 mM Tris pH 7.5, 150 mM KCl, 3 mM MgCl2, 0.01% Triton X-100, 500 ug/ml BSA, 20 U/ml SUPERase-In, 4 C; UNK is unkempt and MSI1 is Musashi-1; names of the RNAs are library labels; protein concentration not given here; high values mean tight binding

| Binder | binding signal |
| --- | --- |
| B1 | 2.09 enrichment R |
| B2 | 0.437 enrichment R |
| B3 | 1.37 enrichment R |
| B4 | 1.51 enrichment R |
| B5 | 1.58 enrichment R |
| B6 | 1.18 enrichment R |
